This is an account of results in PubChem BioAssay AID463173 (ICCB-Longwood Screening Facility, Harvard Medical School, 2010).

SMILES strings stand for the structures. In all, about 52,000 compounds went through this assay and about 4,300 (8.3%) were called active. No stated cut-off is given here; in the data, active means survival mostly below about 52% (no sharp cut-off); inactive means mostly above about 56%. This is one part of the list.

The assay deals with DeltatarO mutant. Description: growth inhibition of S. aureus wild type versus tarO mutant, primary screen, teichoic acid synthesis inhibitors, RN4220, OD600 (AID 463173). Particulars: OD600, 18 h, hits give low values, screened at 18.75 µg/mL (by protocol).
`Cc1cc(-c2nc3ncccc3o2)ccc1NC(=O)c1ccc(Cl)cc1`: the survival is inactive: 76%.
Consider `COc1ccccc1OCCSc1nc(C)cc(C)n1`, for which the survival is inactive: 89%.
`CCOc1ccc(NC(=O)c2c(NC(=O)c3ccccc3Br)sc3c2CCC(C)C3)cc1` (stereo unspecified): the survival was inactive: 60%.
With `CCOc1ccc(NC(=O)CC2C(=O)N(c3ccc(C)cc3)C(=O)N2Cc2ccc(OC)cc2)cc1` (stereo unspecified), the survival was inactive: 68%.
Turning to `Clc1ccc(NC2CCCCC2)nn1`, the survival was active: 66%.
On to `COc1ccc(OC)c(NC(=O)N(C)CCc2c(C)nn(C)c2C)c1`, for which the survival was inactive: 83%.
With `CCC(=O)N1CCc2cc(Br)cc(S(=O)(=O)N(CC)Cc3ccccc3)c21`, the survival was inactive: 50%.
With `NCCNC(=O)CCc1n[nH]c(=O)c2ccccc12`, the survival is inactive: 94%.
Under `Nc1ncc2c(n1)CC(c1ccco1)CC2=O` (stereo unspecified) stands inactive: 80%; under `Cc1cccc(-c2nc3ccccc3n3c(-c4ccccc4)c4c(=O)n(C)c(=O)n(C)c4c23)c1`, inactive: 122%; under `COC(=O)C1C(=O)C2=C(CC1C)Nc1ccccc1NC2c1ccc(O)c(OC)c1` (stereo unspecified), inactive: 87%.
The figure for `O=C(Nc1ccc(F)c(Cl)c1)N1CCC(CN2CCc3ccccc3C2)CC1` is inactive: 64%; for `CCN(C(=O)c1ccco1)c1nnc(Cn2nnc3ccccc32)s1` it is inactive: 91%.
On to `Cc1oc(-c2ccccc2F)nc1CSc1nnc(C)n2c1cc1occc12`, for which the survival was inactive: 74%.
As for `CC(C)(C)OC(=O)N1CCC(c2c(C(=O)N3CCOCC3)cnn2-c2cccc(F)c2)CC1`, the survival is inactive: 124%.
Take `Cc1ccc(C)c(NC(=O)Nc2cccc(-c3cn4cccnc4n3)c2)c1`: the survival was inactive: 82%.
With `COc1ccc(-n2nnc(-c3nc(-c4cccs4)no3)c2N)cc1`, the survival was inactive: 68%.
Consider `CN1C(=O)C2C3c4ccccc4C(c4ccccc43)C2C1=O` (stereo unspecified), for which the survival is inactive: 92%.
`COC(=O)c1ccccc1-n1cc2c(c1-c1cccc(C)c1)c(=O)n(C)c(=O)n2C`: the survival is inactive: 75%.
Turning to `O=C(Nc1ccc(C(=O)N2CCN(c3ccccc3)CC2)cc1)c1nsc2ccccc12`, the survival was active: -1%.
The figure for `CCOC(=O)c1cnc2ccc(Cl)cc2c1Nc1ccc(N2CCOCC2)cc1` is active: 0%; for `CCCN(CCC)CCNC(=O)C1CCN(c2nc3ccc(CC)cc3s2)CC1` it is active: 43%; for `O=C(CSc1nc2c(c(=O)[nH]1)CN(Cc1ccc3c(c1)OCO3)CC2)Nc1ccc(F)c(F)c1` it is inactive: 97%.
Under `CCC(C)NC(=O)CCc1c(C)nc2cc(-c3ccc(OC)cc3OC)nn2c1C` (stereo unspecified) stands inactive: 92%.
Take `Cc1cccc(CCNC(=O)C2CCN(c3nc4ccccc4nc3C(F)(F)F)CC2)c1`: the survival was inactive: 64%.
With `Cc1ccc(-n2ncc3c(NCC(C)C)ncnc32)c(C)c1`, the survival is active: 37%.
